Source: the supplement of paper PMC9151546
Repeats are few or missing, and single values can be far off.

Tests used:
[1] = system: CHO-K1; assay: hypodiploid nuclei frequency (% of nucleated events); higher = more hypodiploid events (aneugenic)
Description: (§1)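 Flow-cytometric in vitro micronucleus assay (Litron MicroFlow) in CHO-K1 cells in 96-well plates, 19 concentrations (4.5-200 µM, n=1 per concentration). Without S9, cells were exposed for 24 h and sampled at 48 h. With Aroclor 1254-induced rat liver S9, cells were exposed for 3-4 h and sampled at 27-28 h. Read-outs are %MN and %hypodiploid nuclei relative to nucleated events, and relative survival as the nuclei-to-bead ratio versus the 1% DMSO vehicle control (x100).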

[2] = system: CHO-K1; assay: relative survival (nuclei to bead ratio vs DMSO control) (% of vehicle control); higher = more surviving cells
Description: as §1

[3] = system: CHO-K1; assay: micronucleus frequency (% of nucleated events); higher = more micronuclei (genotoxic)
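Wherever hypodiploid nuclei frequency (% of nucleated events) is given: hypodiploid nuclei gated on a flow cytometer with 488 nm excitation after SYTOX Green staining, cultures at 37 °C, positive controls vinblastine without S9 and cyclophosphamide with S9.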
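Wherever micronucleus frequency (% of nucleated events) is given: cells lysed with nuclei stained by SYTOX Green, then micronucleus-gated events counted against nucleated events by flow cytometry with 488 nm excitation.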
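Wherever relative survival (nuclei to bead ratio vs DMSO control) is given: Lysed-cell nuclei stained with SYTOX Green and counted against counting beads by flow cytometry at 488 nm excitation, with vinblastine (no S9) and cyclophosphamide (plus S9) as positive controls.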

Clc1ccc(C(c2ccc(Cl)cc2)C(Cl)Cl)cc1 [p,p'-DDD]
Conditions	hypodiploid nuclei frequency, [1] [%]	micronucleus frequency, [3] [%]	relative survival, [2]
concentration: 4.5 (µM), S9 metabolic activation: with S9, exposure time: 3-4 hours	0.18	1.46	134
concentration: 4.5 (µM), S9 metabolic activation: without S9, exposure time: 24 hours	0.82	1.72	127
concentration: 5.63 (µM), S9 metabolic activation: with S9, exposure time: 3-4 hours	0.22	1.38	125
concentration: 5.63 (µM), S9 metabolic activation: without S9, exposure time: 24 hours	0.98	2.04	122
concentration: 7.04 (µM), S9 metabolic activation: with S9, exposure time: 3-4 hours	0.26	1.26	107
concentration: 7.04 (µM), S9 metabolic activation: without S9, exposure time: 24 hours	0.68	1.56	109
concentration: 8.8 (µM), S9 metabolic activation: with S9, exposure time: 3-4 hours	0.18	1.12	134
concentration: 8.8 (µM), S9 metabolic activation: without S9, exposure time: 24 hours	0.84	2.7	115
concentration: 11 (µM), S9 metabolic activation: with S9, exposure time: 3-4 hours	0.24	1	132
concentration: 11 (µM), S9 metabolic activation: without S9, exposure time: 24 hours	0.92	2.22	153
concentration: 13.7 (µM), S9 metabolic activation: with S9, exposure time: 3-4 hours	0.16	1.06	151
concentration: 13.7 (µM), S9 metabolic activation: without S9, exposure time: 24 hours	0.92	2.44	105
concentration: 17.2 (µM), S9 metabolic activation: with S9, exposure time: 3-4 hours	0.14	1.38	189
concentration: 17.2 (µM), S9 metabolic activation: without S9, exposure time: 24 hours	0.9	2.28	97.4
concentration: 21.5 (µM), S9 metabolic activation: with S9, exposure time: 3-4 hours	0.22	0.72	145
concentration: 21.5 (µM), S9 metabolic activation: without S9, exposure time: 24 hours	0.8	2.64	121
concentration: 26.8 (µM), S9 metabolic activation: with S9, exposure time: 3-4 hours	0.18	1.32	113
concentration: 26.8 (µM), S9 metabolic activation: without S9, exposure time: 24 hours	0.9	2.18	119
concentration: 33.6 (µM), S9 metabolic activation: with S9, exposure time: 3-4 hours	0.3	1.68	99.9
concentration: 33.6 (µM), S9 metabolic activation: without S9, exposure time: 24 hours	0.7	2.28	130
concentration: 41.9 (µM), S9 metabolic activation: with S9, exposure time: 3-4 hours	0.2	0.9	129
concentration: 41.9 (µM), S9 metabolic activation: without S9, exposure time: 24 hours	0.94	2.04	116
concentration: 52.4 (µM), S9 metabolic activation: with S9, exposure time: 3-4 hours	0.12	1.12	110
concentration: 52.4 (µM), S9 metabolic activation: without S9, exposure time: 24 hours	0.78	2	110
concentration: 65.5 (µM), S9 metabolic activation: with S9, exposure time: 3-4 hours	0.12	1.18	94.5
concentration: 65.5 (µM), S9 metabolic activation: without S9, exposure time: 24 hours	0.82	2.36	85.5
concentration: 81.9 (µM), S9 metabolic activation: with S9, exposure time: 3-4 hours	0.2	1.02	113
concentration: 81.9 (µM), S9 metabolic activation: without S9, exposure time: 24 hours	0.96	1.78	96
concentration: 102 (µM), S9 metabolic activation: with S9, exposure time: 3-4 hours	0.08	1.3	101
concentration: 102 (µM), S9 metabolic activation: without S9, exposure time: 24 hours	0.64	2.78	102
concentration: 128 (µM), S9 metabolic activation: with S9, exposure time: 3-4 hours	0.18	1.3	104
concentration: 128 (µM), S9 metabolic activation: without S9, exposure time: 24 hours	0.8	2.6	73.6
concentration: 160 (µM), S9 metabolic activation: with S9, exposure time: 3-4 hours	0.36	1.74	84.9
concentration: 160 (µM), S9 metabolic activation: without S9, exposure time: 24 hours	0.56	3.46	71.6
concentration: 200 (µM), S9 metabolic activation: with S9, exposure time: 3-4 hours	0.38	2.93	45.2
